Experimental data: the supplement of paper PMC11741623
The list shows a part of the results. Interaction screen of human proteins with wild-type SARS-CoV-2 proteins by split-DHFR complementation in yeast, 1 µg/mL methotrexate. Value = fitness of the pair (three or more lineages) minus that of the viral protein without a human partner, on a scale set by negative (0) and fused positive (1) controls, mean of up to three cultures; higher = more likely to interact. Active = false discovery rate below 0.05 (one-sided t-test) in at least one culture. Nearly all pairs are not hits, and differences among them are mostly noise (correlation between cultures about 0.3); most hits were seen in one culture only. Human sequences are the Swiss-Prot entries looked up by gene name; the clone may be another isoform. NSP2 values were corrected by the authors for a growth advantage. Listed are human proteins with a hit and a random twelfth of the others.

B1: GCAT, O75600 (protein)
chain: MWPGNAWRAALFWVPRGRRAQSALAQLRGILEGELEGIRGAGTWKSERVITSRQGPHIRVDGVSGGILNFCANNYLGLSSHPEVIQAGLQALEEFGAGLSSVRFICGTQSIHKNLEAKIARFHQREDAILYPSCYDANAGLFEALLTPEDAVLSDELNHASIIDGIRLCKAHKYRYRHLDMADLEAKLQEAQKHRLRLVATDGAFSMDGDIAPLQEICCLASRYGALVFMDECHATGFLGPTGRGTDELLGVMDQVTIINSTLGKALGGASGGYTTGPGPLVSLLRQRARPYLFSNSLPPAVVGCASKALDLLMGSNTIVQSMAAKTQRFRSKMEAAGFTISGASHPICPVMLGDARLASRMADDMLKRGIFVIGFSYPVVPKGKARIRVQISAVHSEEDIDRCVEAFVEVGRLHGALP
B2: PRDX5, P30044 (protein)
chain: MGLAGVCALRRSAGYILVGGAGGQSAAAAARRYSEGEWASGGVRSFSRAAAAMAPIKVGDAIPAVEVFEGEPGNKVNLAELFKGKKGVLFGVPGAFTPGCSKTHLPGFVEQAEALKAKGVQVVACLSVNDAFVTGEWGRAHKAEGKVRLLADPTGAFGKETDLLLDDSLVSIFGNRRLKRFSMVVQDGIVKALNVEPDGTGLTCSLAPNIISQL

Each binder was assayed against SARS-CoV-2 E (assay: yeast fitness gain over the viral ORF with no human partner (scaled fitness); higher = more likely to interact).
Description: (§1)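 Split mouse DHFR complementation in pooled diploid yeast: human ORFeome clones carry one fragment and viral ORFs the other; barcoded lineages compete in 1 µg/mL methotrexate and fitness is read by barcode sequencing in up to three cultures.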

Q: Which yeast fitness gain does the source give for B1 here?
A: inactive: 0.0495

Q: With B2 as the binder, how does the yeast fitness gain read?
A: inactive: -0.0327

Each binder was assayed against SARS-CoV-2 M in the same assay as above.
Description: as §1

Q: With B1 as the binder, how does the yeast fitness gain read?
A: inactive: 0.0728

Q: For B2, which yeast fitness gain is on record?
A: inactive: 0.0229

What follows are binders tested against SARS-CoV-2 NSP10 in the same assay as above.
Description: as §1

Q: How did the yeast fitness gain turn out when B1 was run?
A: inactive: 0.0104

Q: How did the yeast fitness gain turn out when B2 was run?
A: inactive: 0.0317

These binders were tested against SARS-CoV-2 NSP12 in the same assay as above.
Description: as §1

Q: How did the yeast fitness gain turn out when B1 was run?
A: inactive: 0.00557

Q: How did the yeast fitness gain turn out when B2 was run?
A: inactive: -0.22

These binders were tested against SARS-CoV-2 NSP13 in the same assay as above.
Description: as §1

Q: B1 was tested. Which yeast fitness gain did it give?
A: inactive: -0.0538

Q: How did the yeast fitness gain turn out when B2 was run?
A: inactive: -0.0703

These binders were tested against SARS-CoV-2 NSP14 in the same assay as above.
Description: as §1

Q: For B1, which yeast fitness gain is on record?
A: inactive: -0.106

The binders below were run against SARS-CoV-2 NSP15 in the same assay as above.
Description: as §1

Q: For B1, which yeast fitness gain is on record?
A: inactive: -0.0931

What follows are binders tested against SARS-CoV-2 NSP16 in the same assay as above.
Description: as §1

Q: B1 was tested. Which yeast fitness gain did it give?
A: inactive: 0.00603

Q: With B2 as the binder, how does the yeast fitness gain read?
A: inactive: 0.0217

Each binder was assayed against SARS-CoV-2 NSP2 in the same assay as above.
Description: as §1

Q: For B1, which yeast fitness gain is on record?
A: inactive: -0.115

Q: Which yeast fitness gain does the source give for B2 here?
A: inactive: -0.205

Each binder was assayed against SARS-CoV-2 NSP5 in the same assay as above.
Description: as §1

Q: With B1 as the binder, how does the yeast fitness gain read?
A: inactive: 0.0306

Q: How did the yeast fitness gain turn out when B2 was run?
A: inactive: 0.139

The binders below were run against SARS-CoV-2 NSP6 in the same assay as above.
Description: as §1

Q: Which yeast fitness gain does the source give for B1 here?
A: inactive: 0.043

Q: B2 was tested. Which yeast fitness gain did it give?
A: inactive: 0.0936

The binders below were run against SARS-CoV-2 NSP7 in the same assay as above.
Description: as §1

Q: Which yeast fitness gain does the source give for B1 here?
A: inactive: 0.0449

Q: With B2 as the binder, how does the yeast fitness gain read?
A: inactive: 0.0288

Each binder was assayed against SARS-CoV-2 NSP8 in the same assay as above.
Description: as §1

Q: B1 was tested. Which yeast fitness gain did it give?
A: inactive: -0.07

Q: Which yeast fitness gain does the source give for B2 here?
A: inactive: -0.0394

The binders below were run against SARS-CoV-2 ORF10 in the same assay as above.
Description: as §1

Q: Which yeast fitness gain does the source give for B1 here?
A: inactive: -0.0436

Q: Which yeast fitness gain does the source give for B2 here?
A: inactive: -0.00568

The binders below were run against SARS-CoV-2 ORF3B in the same assay as above.
Description: as §1

Q: With B1 as the binder, how does the yeast fitness gain read?
A: inactive: -0.00138

Q: B2 was tested. Which yeast fitness gain did it give?
A: inactive: 0.0378

What follows are binders tested against SARS-CoV-2 ORF6 in the same assay as above.
Description: as §1

Q: How did the yeast fitness gain turn out when B1 was run?
A: inactive: -0.0881

Q: With B2 as the binder, how does the yeast fitness gain read?
A: inactive: -0.0208

Each binder was assayed against SARS-CoV-2 ORF7A in the same assay as above.
Description: as §1

Q: With B1 as the binder, how does the yeast fitness gain read?
A: inactive: -0.0324

Q: B2 was tested. Which yeast fitness gain did it give?
A: inactive: -0.00475

The binders below were run against SARS-CoV-2 ORF7B in the same assay as above.
Description: as §1

Q: With B1 as the binder, how does the yeast fitness gain read?
A: inactive: 0.0294

Q: B2 was tested. Which yeast fitness gain did it give?
A: inactive: -0.0215

These binders were tested against SARS-CoV-2 ORF8 in the same assay as above.
Description: as §1

Q: With B1 as the binder, how does the yeast fitness gain read?
A: inactive: 0.0203

Q: How did the yeast fitness gain turn out when B2 was run?
A: inactive: 0.0655

The binders below were run against SARS-CoV-2 ORF9B in the same assay as above.
Description: as §1

Q: Which yeast fitness gain does the source give for B1 here?
A: inactive: 0.0776

Q: B2 was tested. Which yeast fitness gain did it give?
A: inactive: 0.00783

These binders were tested against SARS-CoV-2 ORF9Bwu (the 73-codon ORF) in the same assay as above.
Description: as §1

Q: How did the yeast fitness gain turn out when B1 was run?
A: inactive: 0.0775

Q: Which yeast fitness gain does the source give for B2 here?
A: inactive: 0.0199

The binders below were run against SARS-CoV-2 S in the same assay as above.
Description: as §1

Q: For B1, which yeast fitness gain is on record?
A: inactive: -0.0255

Q: How did the yeast fitness gain turn out when B2 was run?
A: inactive: -0.0698

These binders were tested against SARS-CoV-2 N in the same assay as above.
Description: as §1

Q: How did the yeast fitness gain turn out when B2 was run?
A: inactive: -0.181

These binders were tested against SARS-CoV-2 NSP1 in the same assay as above.
Description: as §1

Q: B2 was tested. Which yeast fitness gain did it give?
A: inactive: 0.0056

What follows are binders tested against SARS-CoV-2 NSP4 in the same assay as above.
Description: as §1

Q: Which yeast fitness gain does the source give for B2 here?
A: inactive: 0.115

The binders below were run against SARS-CoV-2 NSP9 in the same assay as above.
Description: as §1

Q: How did the yeast fitness gain turn out when B2 was run?
A: inactive: -0.0945

The binders below were run against SARS-CoV-2 ORF3A in the same assay as above.
Description: as §1

Q: B2 was tested. Which yeast fitness gain did it give?
A: inactive: -0.0369
